These results are taken from patent publication US20140105862A1, “STREPTOMYCES MICROFLAVUS STRAINS AND METHODS OF THEIR USE TO CONTROL PLANT DISEASES AND PESTS” (priority 2012, published 2014).

Test [1] deals with abamectin-resistant spider mites (Tetranychus urticae strain NL). Kind of test: Activity against abamectin-resistant spider mites on French bean. On the procedure: (§1) A study was performed to determine the activity of NRRL B-50550 against abamectin-resistant spider mites (Tetranychus urticae strain NL), as compared to wild-type spider mites (Tetranychus urticae strain RW). French bean plants were treated with a wettable powder of a fermentation product of NRRL B-50550 prepared as described in the last paragraph of Example 9, at the rates shown in Table 17 below after dilution. Plants were infested one day prior to treatment with 50-100 of either strain NL or RW, and assessed for the presence of mites seven and fourteen days after treatment.

Test [2] deals with wild-type spider mites (Tetranychus urticae strain RW). Kind of test: Activity against wild-type spider mites on French bean. On the procedure:
as §1

As for Abamectin, the “7 days Resistant Mites (% control)” value in test [1] (0.16 ppm) was 0 % control; in test [1] (0.8 ppm), 80 % control; in test [1] (4 ppm) it was 99 % control; in test [1] (20 ppm), 99 % control. In addition, the “14 days Resistant Mites (% control)” value came out at 0 % control in test [1] (0.16 ppm), 0 % control in test [1] (0.8 ppm), 80 % control in test [1] (4 ppm) and 99 % control in test [1] (20 ppm). Besides, the “7 days Wild Type Mites (% control)” value in test [2] (0.16 ppm) turned out to be 99 % control; in test [2] (0.8 ppm) it was 100 % control; in test [2] (4 ppm) it was 100 % control; in test [2] (20 ppm), 100 % control. The “14 days Wild Type Mites (% control)” value in test [2] (0.16 ppm), in test [2] (0.8 ppm), in test [2] (4 ppm) and in test [2] (20 ppm) was 100 % control each time.
